# Measurements published in PubChem BioAssay.
# Inconclusive results, whose numbers are uncertain, are shown with a selection of clear calls. The source made the active and inactive calls.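 Rule for the calls: active = fitted half-maximal concentration for viability loss no higher than twice the top valid dose, in every repeat run; inconclusive = repeat runs disagree, flat partial loss, or poor curve fit; inactive = the rest.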
# Assay: IOSE-T80 viability loss, PAX8-independent line – cell-based, cherry-pick, selectivity assay for PAX8 inhibitor project, dose response (AID 687032);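 note: cells exposed to compound for 96 h before reading; 0% = neutral control wells and -100% = 2 µM mitoxantrone kill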
# Settings: CellTiterGlo ATP luminescence, 96 h; at 35 µM (top of the series) unless noted
row,SMILES,"activity change, negative = viability loss"
1,COc1ccc(C(=O)O/N=C(\N)c2ccccn2)cc1,inconclusive: 6.22%
2,C[C@H]1CCCCO[C@@H](CN(C)Cc2ccc(C(F)(F)F)cc2)[C@@H](C)CN([C@@H](C)CO)C(=O)c2cc(NS(=O)(=O)c3ccc(F)cc3)ccc2O1,inactive: 1.98%
3,O=C(Cc1ccccc1)c1ccccc1C(=O)N1CCCCC1,inconclusive: 20.6%
4,COc1cccc(S(=O)(=O)N(C)C[C@@H]2OCc3ccccc3-c3c(n(C)c4ccccc34)C(=O)N([C@H](C)CO)C[C@@H]2C)c1,inconclusive: 11.5%
5,Cc1cc(C)c(C(=O)/C=C/c2cccc3ccccc23)c(=O)[nH]1,inconclusive: 23%
6,S=C1SCN(Cc2cccnc2)CN1Cc1cccnc1,inconclusive: 2.26%
7,COc1ccc(CN(C)C[C@H]2Oc3ccc(NC(=O)Nc4ccc5c(c4)OCO5)cc3CC(=O)N([C@H](C)CO)C[C@H]2C)cc1,inconclusive: 2.04%
8,COc1ccc(/C=C2\CN(Cc3ccccc3)C/C(=C\c3ccc(OC)cc3OC)C2=O)c(OC)c1,inconclusive: 0.067%
9,C=CCN1C(=O)/C(=C/c2ccc(OC(C)=O)c(OCC)c2[N+](=O)[O-])SC1=S,inconclusive: 13.8%
10,Cc1ccc(S(=O)(=O)c2ncccc2[N+](=O)[O-])cc1,inconclusive: 15.2%
11,C(=N\Nc1nc2ccccc2s1)/c1ccccn1,inconclusive: 13.3%
12,O=C(Nc1cccc(NC(=O)c2ccc([N+](=O)[O-])o2)c1)c1ccco1,inactive: 2.95%
13,CC1=CC(C)(C)N2C(=O)C3(NCCc4c3[nH]c3ccccc43)c3cc(C)cc1c32 (stereo not given),inconclusive: 13.9%
14,Cc1ccccc1-c1ccc([C@@H]2[C@@H](CO)N3CCCCN(C(=O)NC4CCCC4)C[C@H]23)cc1,inactive: 17.3%
15,C[C@H](NC(=O)c1ccco1)C(=O)Nc1cccc([N+](=O)[O-])c1,inconclusive: 16.6%
16,CC(=O)N(C1=C(Cl)C(=O)c2ccccc2C1=O)C1CCCCC1,inconclusive: 2.19%
17,O=C(NN=Cc1c(O)ccc2ccccc12)c1ccncc1,inconclusive: 15.9%
18,CC(C)c1ccc(-c2nc3ccccc3s2)cc1,inconclusive: 6.07%
19,C[C@@H]1CN([C@H](C)CO)C(=O)c2cc(NS(=O)(=O)c3ccc(Cl)cc3)ccc2O[C@@H](C)CCCCO[C@H]1CN(C)Cc1ccc(C(F)(F)F)cc1,inconclusive: 34.1%
20,C[C@H]1CN([C@@H](C)CO)C(=O)Cc2cc(NC(=O)C3CC3)ccc2O[C@@H]1CN(C)Cc1ccc(-c2ccccc2)cc1,inconclusive: 0.761%

row,SMILES,"activity change, negative = viability loss"
1,CN(N=Nc1nc[nH]c1C(N)=O)C1CCCCC1,inconclusive: 6%
2,Cc1cccc(S(=O)(=O)N2CC[C@@H]3[C@H](CO)N(C)c4ccc(-c5ccc(C#N)cc5)cc4[C@@H]32)c1,inactive: 19.5%
3,N#Cc1nc(NCC(F)F)nc(Nc2cc(F)cc(F)c2)n1,inconclusive: 4.27%
4,O=C(NC(Nc1nc2ccc([N+](=O)[O-])cc2s1)(C(F)(F)F)C(F)(F)F)c1cccnc1,inconclusive: 16.1%
5,O=S(=O)(c1ccccc1F)N1CC[C@@H]2[C@H](CO)Nc3ccc(C4=CCCCC4)cc3[C@@H]21,inactive: 27.2%
6,Cc1ccc(CCc2nnc(SCC(=O)Nc3cccc(Cl)c3)n2-c2ccccc2)o1,inconclusive: 9.76%
7,CCn1c2ccccc2c2cc(NC(=O)c3cc(OC)cc(OC)c3)ccc21,inconclusive: 14%
8,C[C@H](CO)N1C[C@H](C)[C@@H](CN(C)C(=O)c2ccc3c(c2)OCO3)Oc2cc(C#Cc3ccccc3F)ccc2S1(=O)=O,inactive: 43.6%
9,C[C@@H]1CCCCO[C@H](CN(C)C(=O)NC2CCCCC2)[C@H](C)CN([C@@H](C)CO)C(=O)c2cc(NS(=O)(=O)c3ccc(Cl)cc3)ccc2O1,inactive: 0.007%
10,O=C(NNC(=O)c1cccc2ccccc12)c1cccc(F)c1,inconclusive: 9.4%
11,CO[C@@H]1CN(C)C(=O)c2cc(NC(=O)c3nc4ccccc4s3)ccc2OC[C@H](C)NC[C@H]1C,inconclusive: 13.1% [at 30 µM]
12,Cc1cc(C)c2c(c1)/C(=N/NC(=O)c1cc(C)oc1C)CCC2,inconclusive: 11.8%
13,O=C(Nc1cc(S(=O)(=O)N2CCCCC2)ccc1Cl)c1ccccc1NS(=O)(=O)c1ccc(F)cc1,inconclusive: 12.7%
14,CCC(=O)N1CCN(c2ccc(NC(=O)c3ccc([N+](=O)[O-])o3)cc2)CC1,inconclusive: 7.56%
15,COc1ccc(N(C(=O)CCl)C(C(=O)NCCc2ccccc2)c2cccs2)cc1 (stereo not given),inconclusive: -3.97%
16,CS(=O)(=O)N1CC(=O)N2[C@H](CO)[C@H](c3ccc(C#CCC4CCCC4)cc3)[C@H]2C1,inactive: 15.2%
17,C[C@H]1CN([C@@H](C)CO)S(=O)(=O)c2ccc(-c3ccc(C#N)cc3)cc2O[C@@H]1CN(C)Cc1cccc(F)c1,inactive: 18.1% [at 30 µM]
18,C[C@H](CO)N1C[C@H](C)[C@@H](CN(C)Cc2ccc(Cl)c(Cl)c2)Oc2ccc(NS(=O)(=O)c3ccccc3)cc2CC1=O,inconclusive: 3.54%
19,C[C@@H]1CCCCO[C@H](CN(C)Cc2ccc3c(c2)OCO3)[C@@H](C)CN([C@@H](C)CO)C(=O)c2cc(NC(=O)Nc3ccc(C(F)(F)F)cc3)ccc2O1,inactive: 18.5%
20,COc1cc(/C=C2\SC(=S)N(CCC(=O)N3CCCCC3)C2=O)cc(OC)c1OC,inconclusive: 2.1%
